Data on one molecule can be found in patent US20230159653A1.

The target in this assay is ADAM17 (UniProt P78536). The experiment in a line: BLI (Octet Red96, 25 C), antibody captured on anti-human Fab-CH1 (FAB2G) biosensor, antigen in solution.

B1: D8.P1.C1 (Fab, V domains shown)
VH: [here about 100 residues without letters]GGSMDVWGQGTLVTVSS
VL: QSVLTQPPSASGTPGQRVTISCSGSSSNIGSNYVYWYQQLPGTAPKLLIYRNNQRPSGVPDRFSGSKSGTSASLAISGLRPEDEADYYCAVWDDRLSGVVFGGGTKLTVLG
As to B1, the dissociation constant Kd was 3.1 nM, the off-rate (koff) stood at 0.0011 s⁻¹ and the on-rate constant (kon) came to 370000 M⁻¹ s⁻¹.

A word on the Kd: it is the equilibrium constant for the complex coming apart. Read a high Kd as lower affinity. The term koff denotes the first-order rate constant of dissociation. A low value points to slow dissociation. By kon is commonly meant the second-order rate constant of association.
